The other results are listed elsewhere or left out. At the low end of the ranking the order means little.

The target in the test is SIX1-Q177R homeodomain (UniProt Q15475). The experiment in a line: universal protein binding microarray. As to conditions: Universal all-10-mer PBM (8x60K, AMADID 030236), 300 nM GST-tagged protein, Alexa Fluor 488 anti-GST; buffer, salt, pH and temperature not stated; high values mean tight binding; most listed sequences are background and not binding sites; double strand, one strand shown.
CCTTTCCA: the binding signal was -0.131 E-score.

Consider CTTCACGC, for which the binding signal was -0.13 E-score.

For GTTTCCGA, the binding signal stood at 0.0664 E-score.

Consider CAGGGGGG, for which the binding signal was found to be 0.113 E-score.

For the sequence CATGTTGC, the binding signal is -0.226 E-score.

Regarding CCACTAAA, the binding signal was -0.0417 E-score.

Consider CAATATTC, for which the binding signal was -0.177 E-score.

As for CCCGGATC, the binding signal amounted to 0.259 E-score.

Turning to CTGTAAAC, the binding signal is -0.25 E-score.

ATATAACC: the binding signal was found to be 0.0694 E-score.

Consider AGCGATCC, for which the binding signal was -0.0268 E-score.

Turning to GAGCAGCC, the binding signal is -0.0511 E-score.

As to GCTAAAAA, the binding signal was -0.253 E-score.

GACCACAC: the binding signal was 0.269 E-score.

In the case of CGTTATAG, the binding signal is -0.0254 E-score.

Regarding ATAGATCC, the binding signal is -0.101 E-score.

Regarding AGAGTAAA, the binding signal was determined as 0.00767 E-score.

As for GTGGTTGA, the binding signal was -0.176 E-score.

In the case of GGTACCAA, the binding signal was -0.0441 E-score.

In the case of CAACCAGG, the binding signal is -0.0362 E-score.

On to CAAAGCTC, for which the binding signal was -0.0733 E-score.

Regarding CAAATGTA, the binding signal was -0.15 E-score.

Turning to CGGCCAAG, the binding signal is -0.0728 E-score.

As to GGAAGTGA, the binding signal worked out at 0.014 E-score.

For GACTTTCC, the binding signal was -0.21 E-score.

Turning to AGTCGAAG, the binding signal was -0.213 E-score.

For GTCAAAGA, the binding signal is -0.11 E-score.

Turning to ATGCCCAT, the binding signal was -0.111 E-score.

With TGGACCCA, the binding signal is -0.14 E-score.

For the sequence CGCAATTA, the binding signal is -0.0283 E-score.

As for ACCCAAAC, the binding signal is 0.091 E-score.

Regarding CTCGTAAG, the binding signal was -0.00583 E-score.

For ACGCCTGA, the binding signal was 0.0293 E-score.

As for GTGAGTCA, the binding signal came to 0.0222 E-score.

As for ATCCCGCG, the binding signal amounted to 0.0878 E-score.

Regarding CACATCCC, the binding signal was -0.00158 E-score.

On to ACCCACTG, for which the binding signal worked out at 0.181 E-score.

For GGGGTGGA, the binding signal came out at 0.159 E-score.

On to ATTATGAC, for which the binding signal came to 0.0242 E-score.

Regarding AGCAGTTA, the binding signal was -0.124 E-score.

ATCAGTAC: the binding signal is 0.0475 E-score.

Consider ATTGATTA, for which the binding signal is -0.033 E-score.

With AAACATCT, the binding signal was -0.367 E-score.

As for AAATGACT, the binding signal was -0.176 E-score.

On to ATATAAAG, for which the binding signal was -0.176 E-score.

Take ATGAACCA: the binding signal was -0.0367 E-score.

AACGTCGC: the binding signal is -0.241 E-score.

With GAAGCCCA, the binding signal is -0.269 E-score.

In the case of ATGTTAAA, the binding signal was -0.202 E-score.

For AGCCTTTG, the binding signal was -0.115 E-score.

With TTCGTAAA, the binding signal was -0.187 E-score.

As to ATATGGTG, the binding signal was determined as 0.245 E-score.

Regarding ATAACATA, the binding signal was -0.203 E-score.

For the sequence AAATACCG, the binding signal was -0.051 E-score.

Regarding AACGATGG, the binding signal was -0.0417 E-score.

CCTGGAAA: the binding signal was -0.0542 E-score.

Consider ATCGGGAG, for which the binding signal is -0.0418 E-score.

In the case of TATCAATA, the binding signal is -0.0325 E-score.

As for ATCAGTGC, the binding signal was -0.077 E-score.

Turning to GCGCAGAC, the binding signal was -0.156 E-score.

Regarding CCGAGGCC, the binding signal was -0.199 E-score.

Turning to CATCCGGC, the binding signal is -0.0942 E-score.

For GTAACTAC, the binding signal is -0.0229 E-score.

Turning to ATCCAGAG, the binding signal is 0.0774 E-score.

In the case of GTGACAGA, the binding signal is -0.157 E-score.

As for GTGCACTA, the binding signal came to 0.126 E-score.

Turning to ACAATAAG, the binding signal stood at 0.115 E-score.

With CAGCGAGA, the binding signal amounted to 0.047 E-score.

TATAGTAA: the binding signal is -0.0857 E-score.

In the case of TGGTGACA, the binding signal worked out at 0.271 E-score.

For the sequence CAGCTTGG, the binding signal was -0.0981 E-score.

As to GCTCTCAC, the binding signal was -0.221 E-score.

For the sequence AACCCTTA, the binding signal is -0.00294 E-score.

ACAGACTG: the binding signal was -0.167 E-score.

Turning to AAAATGAA, the binding signal was -0.14 E-score.

As for AGATTTAT, the binding signal was -0.145 E-score.

For GACCGCTC, the binding signal was -0.297 E-score.

Take CTACCGCC: the binding signal was -0.00202 E-score.

Take AAAGCAAA: the binding signal is -0.279 E-score.

Consider CAACGGGC, for which the binding signal is -0.305 E-score.

Consider AAGGGTGA, for which the binding signal was -0.0417 E-score.

As for TTAAGTAA, the binding signal came to 0.0624 E-score.

In the case of CATACAGC, the binding signal is -0.0833 E-score.

Consider AATTGTTA, for which the binding signal was -0.263 E-score.

Regarding GGTCGTAC, the binding signal was 0.224 E-score.

For the sequence CGTGGCAG, the binding signal was -0.175 E-score.

For the sequence ATAGCTGC, the binding signal is -0.193 E-score.

GAAATAAA: the binding signal was -0.128 E-score.

ATGCTACA: the binding signal is 0.0978 E-score.

On to TAAGCTAA, for which the binding signal is -0.291 E-score.

On to ACATGTGG, for which the binding signal is -0.17 E-score.

For the sequence GCTCTACC, the binding signal is 0.0948 E-score.

For the sequence CAATAGAC, the binding signal is -0.201 E-score.

As to CGACGTAA, the binding signal was -0.104 E-score.

Turning to AAAAGGAC, the binding signal is -0.139 E-score.

With GATGCGAA, the binding signal was -0.187 E-score.

With CTACGTTC, the binding signal was -0.203 E-score.

Consider ACGGTCTG, for which the binding signal came to 0.0327 E-score.

Consider AACGTCTT, for which the binding signal was -0.237 E-score.

As for ATCTTAAA, the binding signal is -0.17 E-score.

Regarding TAGTGAGA, the binding signal was found to be 0.154 E-score.

Regarding ATTGTGGA, the binding signal stood at 0.0251 E-score.

On to GAAGCTCC, for which the binding signal was -0.285 E-score.

Regarding ATTAAAAA, the binding signal is -0.29 E-score.

Take ATCTGGTC: the binding signal was -0.0419 E-score.

As for CAACACCC, the binding signal was determined as 0.456 E-score.

As to AAAAGGCT, the binding signal was -0.306 E-score.

As for GAATATTA, the binding signal was -0.0116 E-score.

For the sequence CTTGACGC, the binding signal is -0.0465 E-score.

Consider CTGGAGGC, for which the binding signal is -0.106 E-score.

Take CATAAACA: the binding signal is 0.0837 E-score.

Take ATATACTA: the binding signal amounted to 0.0556 E-score.

As to AAATCTCA, the binding signal is -0.157 E-score.

In the case of ACCTGGAA, the binding signal amounted to 0.111 E-score.

With GAGGTCTA, the binding signal is 0.00402 E-score.

For CCTGAATC, the binding signal is -0.125 E-score.

ATTGTGTG: the binding signal was 0.0178 E-score.

Consider AGTCAAAT, for which the binding signal was -0.189 E-score.

Turning to CCGAGGAA, the binding signal was 0.131 E-score.

As to CCTGACTC, the binding signal was 0.115 E-score.

For AGGCCAAG, the binding signal is -0.163 E-score.

As for CAGGGCCG, the binding signal was -0.0709 E-score.

Turning to AGCATAAA, the binding signal was -0.0234 E-score.

ATGTCCGG: the binding signal was -0.23 E-score.

GTGCCCGA: the binding signal was 0.128 E-score.

Regarding ATCCGCGG, the binding signal was 0.0619 E-score.

For the sequence AGCTATTA, the binding signal was -0.248 E-score.

Regarding ATTGGACC, the binding signal was -0.0294 E-score.

GGAGTGAC: the binding signal amounted to 0.139 E-score.

Take CCCTTGAG: the binding signal worked out at 0.0318 E-score.

As to CAACCGTA, the binding signal is -0.357 E-score.

As to AACATACG, the binding signal is -0.188 E-score.

Regarding GCCAATCC, the binding signal was -0.121 E-score.

As to CCTTAAGC, the binding signal was -0.137 E-score.

For the sequence GCCCTGAA, the binding signal was -0.185 E-score.

Consider GGACTAAC, for which the binding signal is -0.0725 E-score.

AAAATAAA: the binding signal was -0.169 E-score.

With GCATTGCA, the binding signal worked out at 0.0131 E-score.

Consider TCGGTTCA, for which the binding signal is 0.0108 E-score.

As for ATAGTCGC, the binding signal was -0.0145 E-score.

On to GCGGGGGA, for which the binding signal stood at 0.157 E-score.

Regarding CTAGTCTC, the binding signal was -0.213 E-score.

Take AGGTAATG: the binding signal is -0.0501 E-score.

In the case of GGGTGCAA, the binding signal worked out at 0.261 E-score.

GCACGACC: the binding signal was 0.255 E-score.

ACAACAAT: the binding signal was 0.0987 E-score.

With CCACGCAC, the binding signal was determined as 0.0821 E-score.

In the case of CTATAGAC, the binding signal was -0.0286 E-score.

Regarding AACGCCGG, the binding signal was 0.104 E-score.

For CATCGCGG, the binding signal was -0.194 E-score.

In the case of GTACTAGA, the binding signal is 0.155 E-score.

Take TATTCTCA: the binding signal was -0.0638 E-score.

With CGTAGCGA, the binding signal was -0.0924 E-score.

For the sequence CTCAGATA, the binding signal is -0.314 E-score.

For the sequence GCGGGCCC, the binding signal was -0.0174 E-score.

As for GACTGTCA, the binding signal was -0.105 E-score.

Turning to GATTCTAC, the binding signal was determined as 0.00138 E-score.

Turning to ACTATCTC, the binding signal is -0.0775 E-score.

Regarding TCTACCCA, the binding signal stood at 0.0236 E-score.

Take ACCATACC: the binding signal was found to be 0.0352 E-score.

Take ATACGAGC: the binding signal was 0.0115 E-score.

Consider ACTTACAG, for which the binding signal is -0.0163 E-score.

As to CTGCATCA, the binding signal was -0.211 E-score.

For GTGTCGCA, the binding signal was 0.442 E-score.

On to GACCCCAC, for which the binding signal is 0.218 E-score.

ATACCGCC: the binding signal stood at 0.141 E-score.

For CTCTTGCC, the binding signal was -0.129 E-score.

Take GCGACGAC: the binding signal is -0.144 E-score.

For the sequence CGCAGTCC, the binding signal was -0.173 E-score.

For the sequence AGATAAAA, the binding signal was 0.0966 E-score.

For AGTCCGTA, the binding signal was -0.151 E-score.

Regarding GCATCGCC, the binding signal was -0.122 E-score.

The values are drawn from PMC10668032.
